This passage reports nonsense suppression results from the RNAGym collection of RNA variant scans (doi:10.1101/gad.245936.114).

The labels stand for the following.
B1: tRNA (parent)
chain: CUCUCGGUAGCCAAGUUGGUUUAAGGCGCAAGACUUUAAUUUAUCACUACGAAAUCUUGAGAUCGGGCGUUCGACUCGCCCCCGGGAGAUUUUUUCCUCGAGCAA

Variants at the background level are over-represented here.

In this series the parent is B1. The series is described as follows: nonsense suppression (GFP-seq) (ratio to wild type); higher = more function; SUP4oc tRNA, yeast GFP reporter sort-seq. In short, it runs like this: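 Yeast were grown in raffinose/galactose medium with 80 mg/L adenine, each strain bearing a genome-integrated ochre-suppressor tRNA variant from a ~3% random-mutation library, a galactose-driven GFP ochre reporter, and RFP. After sorting into GFP/RFP bins, every bin was sequenced on an Illumina platform at phred ≥30. The GFPSEQ value, a measure of nonsense suppression, is the weighted bin median GFP/RFP relative to the unmutated parent tRNA, using each variant's estimated cell share per bin as the weight. Only variants with ≥100 reads and ≥30 cells were included.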
Turning to CUCUCGGUAGCCAAGUUGGUUGAAGGCGCAAGACUUUAAUUUAUCACUACGAAAUCUUGAGGUCGGGCGUUCGACUCGUCCCCGGGAGAUUUUUUCCUCGAGCAA [U22G A62G C79U], the nonsense suppression is not above 0.026.
The result for CUCUCGGUAGCCAAGUUGGUUUAAGGCGCAAGACUUUAAUUUAUCACUACGAAAACUUUAGAUCGGGCGUUCGACUCGCCCCCUGGAGAUUUUUUCCUCGAGCAA [U55A G59U G84U] reads not above 0.026; that for CUCUCGGUAGCCAAGUUGGUUUAAGGCGCAAGACUUUAAUUUAUCACUACGAAAUGAUGAGAUCGGGCGUUGGACUCGCCCCCGGGAGAUUUUUUCCUCGAGCAA [C56G U57A C72G], not above 0.026; that for CUCUCGGUAGCCAGGUUGGUUUAAGGCGCAAGACUUUAAUUUAUCACUACGAAAUAUUGAGAUCGGGCGUUCGACUCGCCGCCGGGAGAUUUUUUCCUCGAGCAA [A14G C56A C81G], not above 0.026.
The result for CUCUCGGUAGCCAGGUUGGUUUGAGGCGCAAGAUUUUAAUUUAUCACUACGAACUUUUGAGAUCGGGCGUUCGACUCGCCCCCGGGAGAUUUUUUCCUCGAGCAA [A14G A23G C34U A54C C56U] reads not above 0.026; that for CUCUCGGUAACCAAGUUGGUUUACGGCGCAAGACUUUAAUUUAUCACUACGAAAUCUUGAGAUCGGGCGUUCGCCUCGCCCCCGGGAGAUUUUUUCCUCGAGCAA [G10A A24C A74C], not above 0.026; that for CUCUCGGUAGCCAAGUUGGUUUAAGGCGCAAGAUUUUAAUUUAUCACUACGAAAUCUUGAGAUCGGGCGCUCGACUCGCCCCCGGGAGAUUUUUUCCUCGAGCAA [C34U U70C], not above 0.026.
The value for CUCUCGGUAGACAAGUUGGUUUAAGGCGCAAGACUUUAAUUUAUCACUACGAAAAGUUGAGAUCGGGCGUUCGACUCGCCCCCGGGAGAUUUUUUCCUCGAGCAA [C11A U55A C56G] was not above 0.026; that for CUCUCGGUAGCCAAGUUGGUUUAAGGCGCAGGACUUUAAUUUAUCACUACGAAAUCUUGAGAUCGGGCGUUCGACUCGCACCCGGGAGAUUUUUUCCUCGAGCAA [A31G C80A] was not above 0.026.
With CUGUCGGUAGCCAAGUUGGUUCAAGGCGCAAGACUUUAAUUUAUCACUACGAAAUCUUGAGAUCGGGCGUUCGACUCGCCCCCGGGAGAUUUUUUCCUCGAGCAA [C3G U22C], the nonsense suppression is not above 0.026.
With CUCAAUGUAGCCAAGUUGGUUUAAGGCGCAAGACUUUAAUUUAUCACUACGAAAUCUUGAGAUCGGGCGUUCUACUCGCCCCCGGGAGAUUUUUUCCUCGAGCAA [U4A C5A G6U G73U], the nonsense suppression was not above 0.026.
The value for CUCUCGGUAGCCAAGUUGGUUUAAGGGGCAAGACUUUAAUUUAUCACUACGAAAUCUUGAGAUCGGGCGUUCGACUCGCCCCGGGGAGAUUUUUUCCUCGAGCAA [C27G C83G] was not above 0.026; that for GUCUCGGUAGCCAAGUUGGUUUAAGGCGCAAGACUUUAAUUUAUCACUACGAAAUCUUGAGAUCGGGCGUUCGCCUCGCCCACGGGAGAUUUUUUCCUCGAGCAA [C1G A74C C82A] was not above 0.026; that for CUCUCGGUAGCCAAGUUGGUUUAAGGUGGAAGACUUUAAUUUAUCACUACGAAACCUUGAGAUCGGGCAUUCGACUCGCCCCCGGGAGAUUUUUUCCUCGAGCAA [C27U C29G U55C G69A] was not above 0.026.
The value for CUCUCGGUAGCCAAGUUGGUUUAAGGCGCAAGACUUUAAUUUAUCACUACGAAAUCUUCAGAUCGGGCGUUCGACUCGCCCACGGGAGAUUUUUUCCUCGAGCAA [G59C C82A] was not above 0.026; that for CUCUCGGUAGACAAGUUGGUUUAAGGCGCAAGACUUUAAUUUAUCACUACGAAAUCUUGAGAUCGGGCGUUCGACCCGCCCCCGGGAGAUUUUUUCCUCGAGCAA [C11A U76C] was not above 0.026.
The result for CUCUCGGUAGGCAAGUUGGUUUAAGGCGCAAGACUUUAAUUUAUCACUACGAAAUCUUGAGAUCGGGCGUUCAACUCGCCCCCCGGAGAUUUUUUCCUCGAGCAA [C11G G73A G84C] reads not above 0.026; that for CUCUCGGUAGCCAAGUUUGUUUAAGGCGCAAGACUUUAAUUUAUCACUACGAAAUCUUGAGAUCGGCCGUUCGACUCGCCCCCGGGAGAUUUUUUCCUCGAGCAA [G18U G67C], not above 0.026.
As to CUCUCGGUCGCCAAGUUGAUUUAAGGCGCAAGACUUUAAUUUAUCACUACGAAAUCUUGAGAUCGGGCGUUCGACUCGCCCCCGGAAGAUUUUUUCCUCGAGCAA [A9C G19A G86A], the nonsense suppression is not above 0.026.
In the case of CUCUCGGUAGCCAAGUUGGUUUAAGGCGCAAGACUUUAAUUUAUCACUACGAAAUCUUGAGAUCGGGCGUUCUACUUGCCCCCGGGAGAUUUUUUCCUCGAGCAA [G73U C77U], the nonsense suppression was not above 0.026.
As to CUCUCGGUAGCCAAGUUUGUUUAAGGCGCAAGACUUUAAUUUAUCACUACGAAAUCUUGAGAUCGGGCGUGCGACUCGCCCCCGGGAGAUUUUUUCCUCGAGCAA [G18U U71G], the nonsense suppression is not above 0.026.
The value for CUCUCGGUAGCCCAGUUGGUUUAAGGCGUAAGACUUUAAUUUAUCACUACGAAAUCUUGAGAUCGGGCGUUCGACUCGCCCCCGGGAGAUUUUUUCCUCGAGCAA [A13C C29U] was 0.806; that for CUCUAGGUAGCGAAGUUGGUUUAAGGCGCAAGACUUUAAUUUAUCACUACGAAAUCAUGAGAUCGGGCGUUCGACUCGCCGCCGGGAGAUUUUUUCCUCGAGCAA [C5A C12G U57A C81G] was not above 0.026.
As for CUCUCGGUCGCCAAGUUGGUUUAAGGCGCAAGACUUUAAUUUAUCACUACGAAAUCUUGAGAUCGGGCGUUCGACUCGCCCCCGGGACAUUUUUUCCUCGAGCAA [A9C G88C], the nonsense suppression is not above 0.026.
The result for CUCUCGGUAUCCAAGUUGGUUUAAGGCGCAAGACUUUAAUUUAUCACUACGAAAUCUUGAGAUCGCGCGUUCGACUCGCCCCCCGGAGAUUUUUUCCUCGAGCAA [G10U G66C G84C] reads not above 0.026; that for GUCUCGGUAGCCAAGAUGGUUUAAGGCGCAAGACUUUAAUUUAUCACUACGAAAUCUUGAGAUCGGGCGUUCGACUCGCCCCCGGGAGAUUUUUUCCUCGAGCAA [C1G U16A], 0.777; that for CUCUCUGUAGCCUAGUUGGUUUAAGGCGCAGGACGUUAAUUUAUCACUACGAAAUCUUGAGAUCGGGCGUUCAACUCGCCCCCGGGACAUUUUUUCCUCGAGCAA [G6U A13U A31G U35G G73A G88C], not above 0.026.
